This experiment addresses Plasma-purified human α-1 antitrypsin (Respreeza, CSL Behring) (human, UniProt P01009). Description: SDS-PAGE of the AAT-elastase complex, Coomassie stain; AAT (0.5 mg/mL, diluted 1 in 25) mixed with porcine pancreas elastase at a molar ratio of 2:1 (AAT:elastase), 30 min at room temperature, in some samples with 10 ng/mL LPS and 12 µg/mL spike; stopped with SDS sample buffer; 7.5% SDS gel (same samples also on 7.5% native gel). The note with it: both partners purified.

B1: Porcine pancreas elastase (Sigma-Aldrich) (enzyme, UniProt P00772 27-266, looked up)
chain: VVGGTEAQRNSWPSQISLQYRSGSSWAHTCGGTLIRQNWVMTAAHCVDRELTFRVVVGEHNLNQNDGTEQYVGVQKIVVHPYWNTDDVAAGYDIALLRLAQSVTLNSYVQLGVLPRAGTILANNSPCYITGWGLTRTNGQLAQTLQQAYLPTVDYAICSSSSYWGSTVKNSMVCAGGDGVRSGCQGDSGGPLHCLVNGQYAVHGVTSFVSRLGCNVTRKPTVFTRVSAYISWINNVIASN
notes: porcine pancreas elastase (pancreatic elastase 1), bought enzyme; source: bought: Sigma-Aldrich, Merck
As to B1, the binding result is “binds”.

Values taken from PMC8347018, “Boosted Pro-Inflammatory Activity in Human PBMCs by Lipopolysaccharide and SARS-CoV-2 Spike Protein Is Regulated by α-1 Antitrypsin †” (International Journal of Molecular Sciences, 2021).
